PubChem BioAssay AID686979 (National Center for Advancing Translational Sciences (NCATS), 2013)
Several values for one entry are separate records, joined by “and”; a condition that tells them apart may be missing. Equal values may be shown once. The whole screen tested about 420,000 compounds, of which about 50,000 (12%) were called active. The shares of active, inactive and inconclusive entries below differ from those in the screen. Calls come from the whole dose curve; as a rule, active = well fitted inhibition curve with a large enough effect; inconclusive = small, poorly fitted or top-dose-only effect; inactive = flat fitted curve, though single readings scatter. Potencies beside an inconclusive call are fits to weak or partial responses and may not hold up.

Experiment: qHTS for Inhibitors of human tyrosyl-DNA phosphodiesterase 1 (TDP1): qHTS in cells in presence of CPT; note: nearly all actives have a fitted effect of over 55% in size
Conditions: chicken DT40 Tdp1-/-;hTDP1 cells + 20 nM CPT, ATP luminescence, 48 h; activity change, negative = growth inhibition: at 46.2 µM (top of the series) unless noted
Method in brief: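 Chicken DT40 Tdp1-/- cells complemented with human TDP1, 400 cells/well, exposed to compounds plus 20 nM camptothecin for at least 48 h at 37 C; viability read as ATP content by CellTiter-Glo luminescence.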
% is set by controls: 0 for no effect and ±100 for the full control effect; potency is the fitted concentration of half-maximal effect; tags give direction and shape of the fitted curve.

**Q.** Which Potency does the source give for `COC(=O)c1ccc(NC(=O)CC2Nc3cc(C)c(C)cc3NC2=O)cc1` (stereo not given) here?
**A.** inconclusive: 29.1 µM [inhibitor, single point]

**Q.** For `Cc1ccc(S(=O)(=O)Nc2c(NC3CCCCC3)c3ccccc3oc2=O)c(C)c1`, which Potency is on record?
**A.** inconclusive: 23.1 µM [inhibitor, single point]

**Q.** Which Potency does the source give for `Nc1nc2ccc(Cl)cc2cc1C(=O)NCCc1ccc(O)cc1` here?
**A.** inconclusive: 20.6 µM [inhibitor, single point]

**Q.** Which “activity change, negative = growth inhibition” value does the source give for `Cc1nnc(N/N=C/c2ccccc2F)n1N` here?
**A.** inactive: -14.2%

**Q.** Which Potency does the source give for `O=C(CCCN1C(=O)/C(=C/c2cccs2)SC1=S)NNC(=O)c1ccncc1` here?
**A.** inconclusive: 29.1 µM [inhibitor, single point]

**Q.** For `COCCCN(C(C)=O)c1nc(-c2ccc(OC)cc2)cs1`, which Potency is on record?
**A.** active: 14.6 µM

**Q.** Which “activity change, negative = growth inhibition” value does the source give for `O=C(Cc1ccccc1)Nc1cc(C(=O)c2ccccc2)ccc1N1CCOCC1` here?
**A.** inactive: -69.8%

**Q.** Which Potency does the source give for `CCOc1cc(N)c(Cl)cc1C(=O)NCC1CN(Cc2ccc(F)cc2)CCO1` (stereo not given) here?
**A.** inconclusive: 21.1 µM [inhibitor, single point] and inconclusive: 29.1 µM [inhibitor, single point]

**Q.** Which “activity change, negative = growth inhibition” value does the source give for `CCOC(=O)C(NC(=O)c1ccccc1)(OCc1ccc(F)cc1)C(F)(F)F` (stereo not given) here?
**A.** inactive: -26.8%

**Q.** Which Potency does the source give for `CS(=O)(=O)N(CC(=O)NCCSCc1ccccc1)c1ccccc1Br` here?
**A.** inconclusive: 29.1 µM [inhibitor, single point]

**Q.** With `Cc1cccc(OCC(=O)Nc2c(C(=O)N3CCN(c4ccccc4F)CC3)oc3ccccc23)c1` as the molecule, how does the Potency read?
**A.** inconclusive: 29.1 µM [inhibitor, single point]

**Q.** Which “activity change, negative = growth inhibition” value does the source give for `Cc1cc(C)cc(OCC(=O)NC(Cc2c[nH]c3ccccc23)C(=O)O)c1` (stereo not given) here?
**A.** inactive: -22.2%

**Q.** With `O=C(O)/C(=C\c1cccs1)c1ccc(F)cc1` as the molecule, how does the “activity change, negative = growth inhibition” value read?
**A.** inactive: -1.29%

**Q.** For `Cc1ccccc1-n1ncc2c([N+](=O)[O-])cc([N+](=O)[O-])cc21`, which Potency is on record?
**A.** active: 25.9 µM

**Q.** With `Clc1ccccc1-c1ccc2ncnc(NCCN3CCOCC3)c2c1` as the molecule, how does the Potency read?
**A.** inconclusive: 20.6 µM [inhibitor, partial curve]

**Q.** Which “activity change, negative = growth inhibition” value does the source give for `Cc1cccc(OCC(=O)N(Cc2ccco2)C2CCS(=O)(=O)C2)c1` (stereo not given) here?
**A.** inactive: 0.508%

**Q.** Which Potency does the source give for `CCc1ccc(NC(=O)C2=CC(c3ccc(OC)c(OC)c3)=NS(=O)(=O)N2C)cc1` here?
**A.** active: 11.6 µM

**Q.** With `CCSc1nnc(NC(=O)CC(C)C)s1` as the molecule, how does the “activity change, negative = growth inhibition” value read?
**A.** inactive: -2.27%

**Q.** Which Potency does the source give for `Cc1ccc(NC(=S)N(Cc2cccs2)Cc2cc3cc(C)cc(C)c3[nH]c2=O)cc1` here?
**A.** inconclusive: 29.1 µM [inhibitor, single point]

**Q.** For `Cc1ccc2onc(CC(=O)Nc3cccc(C(F)(F)F)c3)c2c1`, which Potency is on record?
**A.** inconclusive: 18.4 µM [inhibitor, single point]
